The record followed here is PubChem BioAssay AID488969 (Vanderbilt High Throughput Screening Facility, 2010).

Over roughly 110,000 compounds, “z-score” has its median near -0.1; the highest 2% begin near 2. The list shows a part of the results.

This test addresses Metabotropic glutamate receptor 8 (Rattus norvegicus) (UniProt P70579). Nature of the test: rat mGluR8 modulators via GIRK flux, primary screen, cell-based, thallium flux, HTS (AID 488969). The following applies: HEK293 rat mGluR8, GIRK (G protein-gated inwardly rectifying potassium channel) thallium flux, FluoZin2; at 10 µM; stronger effect = higher value; submaximal glutamate (EC20) added with thallium.
Sequence of UniProt P70579 (P70579 whole entry, looked up): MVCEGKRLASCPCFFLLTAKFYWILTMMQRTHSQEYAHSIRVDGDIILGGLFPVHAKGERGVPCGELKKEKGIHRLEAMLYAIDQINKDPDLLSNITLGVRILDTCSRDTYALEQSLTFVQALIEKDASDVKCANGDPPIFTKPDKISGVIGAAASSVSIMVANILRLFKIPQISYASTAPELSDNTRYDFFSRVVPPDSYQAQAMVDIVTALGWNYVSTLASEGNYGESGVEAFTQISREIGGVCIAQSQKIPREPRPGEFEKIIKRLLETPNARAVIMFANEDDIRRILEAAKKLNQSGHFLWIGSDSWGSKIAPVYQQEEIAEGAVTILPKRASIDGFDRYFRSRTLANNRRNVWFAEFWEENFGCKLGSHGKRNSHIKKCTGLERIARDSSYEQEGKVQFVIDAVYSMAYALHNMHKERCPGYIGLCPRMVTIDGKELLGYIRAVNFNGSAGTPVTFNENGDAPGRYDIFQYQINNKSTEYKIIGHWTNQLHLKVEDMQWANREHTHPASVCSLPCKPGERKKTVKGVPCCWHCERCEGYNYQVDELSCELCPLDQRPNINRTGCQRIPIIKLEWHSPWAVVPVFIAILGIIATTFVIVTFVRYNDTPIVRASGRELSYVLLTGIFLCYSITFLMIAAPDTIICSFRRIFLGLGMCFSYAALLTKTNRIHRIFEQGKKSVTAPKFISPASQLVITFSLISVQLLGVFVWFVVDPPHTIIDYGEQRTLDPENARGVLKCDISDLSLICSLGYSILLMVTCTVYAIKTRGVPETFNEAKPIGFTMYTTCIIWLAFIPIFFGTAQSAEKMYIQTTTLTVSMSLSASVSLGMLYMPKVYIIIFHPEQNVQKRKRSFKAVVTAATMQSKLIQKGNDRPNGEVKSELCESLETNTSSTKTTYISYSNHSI
`CCc1ccc(OCCCC(=O)NCc2ccccc2)cc1`: the z-score is -0.572.

Molecule `CN(C)c1ccc(NC(=O)c2cn(-c3ccccc3)nc2-c2cccs2)cc1` had a z-score of 0.431.

The molecule `CCOC(=O)c1cnc(SCc2nc(N)nc(Nc3ccc(C)cc3)n2)nc1N` registered a z-score of -0.106.

`Cc1cccc(Sc2nc(-c3ccccc3)ccc2C#N)c1` gave a z-score of 0.296.

`Cc1cc(C)c(C#N)c(SCc2ccc(C#N)cc2)n1` registered a z-score of 0.177.

With `O=C(O)C1CC=C(Cl)CC1C(=O)NCc1ccccc1` (stereo unspecified), the z-score is -0.00639.

For the molecule `FC(F)(F)COc1nc(N2CCCCC2)nc(N2CCNCC2)n1`, the z-score came out at 2.6.

For the molecule `CCC(C)C(NC(=O)C1CCC(C)CC1)C(=O)Nc1cc(OC)ccc1OC` (stereo unspecified), the z-score is -0.422.

In the case of `O=[N+]([O-])c1ccccc1S(=O)(=O)Oc1ccccc1/C=N/n1cnnc1`, the z-score was -0.648.

As for `N#Cc1c(-c2ccccc2)ccn(Cc2cccc(Cl)c2)c1=O`, the z-score was -0.115.

As for `CC(=O)NS(=O)(=O)c1ccc(NC(=O)c2cc(-c3ccc(C)cc3)nc3ccccc23)cc1`, the z-score is -0.253.

The molecule `O=C(C1CCC(C(=O)N2CCCCC2)CC1)N1CCCCC1` (stereo unspecified) returned a z-score of 0.0509.

With `Cn1nc(-c2ccc(OCC(N)=O)cc2)c2ccccc2c1=O`, the z-score was -0.0429.

For the molecule `CCC(=O)NC(=S)Nc1ccccc1OC`, the z-score was -0.0141.

With `Cc1ccc(CNC(=O)c2ccc3nc4[nH]c5ccccc5c4nc3c2)cc1`, the z-score was -0.472.

`Cc1cccc(N(CC(=O)NC2CCCC2)C(=O)CCCC(=O)Nc2ccccn2)c1`: the z-score is 0.15.

`CCOC(=O)N1CCC(Nc2c(-c3ccccc3)c(=O)c2=O)CC1` returned a z-score of -0.162.

Molecule `COc1ccc(NC(=O)COC(=O)[C@@H]2CCCN2C(=O)c2cccs2)c(OC)c1` gave a z-score of -0.344.

For `COC(=O)C(C(=O)NCC1CCCO1)C1CCCC1` (stereo unspecified), the z-score was -0.0779.

The molecule `O=C(CCc1ccc(S(=O)(=O)NCc2ccccc2)cc1)NCc1ccc2c(c1)OCO2` displayed a z-score of -0.337.

`Cc1cccc(OCCSc2nc3c([nH]2)c(=N)ncn3Cc2ccccc2)c1`: the z-score was -0.0916.

`Cc1cccc(C)c1NC(=O)CSc1nnc(CCCCCNC(=O)OC(C)(C)C)o1` registered a z-score of 0.47.

Take `O=C(NCc1ccccn1)C1CCN(S(=O)(=O)N2CCCCC2)CC1`: the z-score was determined as 0.621.

Turning to `C/C(=C\C(=O)c1ccccc1)NCc1ccc(F)cc1`, the z-score was -0.549.

Consider `C(=N\Nc1nc(Nc2ccccc2)nc(N2CCOCC2)n1)/c1c[nH]c2ccccc12`, for which the z-score is -0.368.

In turn, `CCOC(=O)c1c(NC(=O)C(C)N2CCN(S(=O)(=O)c3cccs3)CC2)sc2c1CCC(C)C2` (stereo unspecified) gave a z-score of 0.49.

Consider `CCCCSc1nnc(-c2ccc(NC(C)=O)cc2)n1C`, for which the z-score is -0.138.

`CC(=O)Nc1ccccc1OC(C)C(=O)NC(C)c1ccc(F)cc1` (stereo unspecified) came in with a z-score of -0.113.

Consider `Oc1ccc(/C=N/Nc2cc(N3CCOCC3)nc(N3CCOCC3)n2)cc1`, for which the z-score is -0.137.

`CCCCOc1ccc(-c2ncc(C(=O)OCC)c(N)n2)cc1`: the z-score worked out at 0.409.

As for `COc1ccc(OCCSc2nnc(CCNC(=O)c3ccc(Cl)c(Cl)c3)n2C)cc1`, the z-score was -0.372.

`O=C(Nc1nnc(C2CC2)s1)c1cccc(S(=O)(=O)N2CC(c3ccccc3)CC2=O)c1` (stereo unspecified) came in with a z-score of -0.463.

`CC1=C(C(=O)OC(C)(C)C)C(c2ccco2)C(C#N)=C(N)O1` (stereo unspecified): the z-score is -0.4.

`Cc1c(N2C(=O)C(C)SC23C(=O)Nc2ccccc23)c(=O)n(-c2ccccc2)n1C` (stereo unspecified) showed a z-score of -0.12.

Molecule `COc1ccccc1-c1noc(-c2ccncc2)n1` showed a z-score of 0.306.

Molecule `Cc1ccc(N(CC(=O)O)S(C)(=O)=O)cc1Cl` registered a z-score of 0.0594.

In turn, `COc1cc(/C=N/NC(=O)c2cc(-c3cccn3C)n[nH]2)cc(OC)c1OC` returned a z-score of -0.482.

`CNC(=O)c1cc2ccccc2o1` registered a z-score of -1.01.

In the case of `O=C(N=Nc1c(O)[nH]c2ccccc12)c1ccccc1NS(=O)(=O)c1cccs1`, the z-score came to 0.524.

`CCCCCCC(=O)N/N=C/c1ccc(Br)cc1` yielded a z-score of -0.143.

Consider `CC1=C(C(=O)Nc2ccccc2C)C2(CCCC2)C(C(N)=O)C(=O)N1` (stereo unspecified), for which the z-score is -0.14.

As for `CCOc1ccccc1NC(=O)C1CC2CCCC(C1)C2=O` (stereo unspecified), the z-score is -0.178.

With `O=C(c1ccc([N+](=O)[O-])cc1)n1nc(-c2ccccc2)nc1NCc1ccccc1`, the z-score is -0.233.

Molecule `Cc1csc(NC(=O)CSc2nnc(-c3ccncc3)o2)n1` gave a z-score of -0.104.

`CN(c1ccc(C(=O)N2CCCCC2)cc1)S(C)(=O)=O` registered a z-score of 0.156.

In turn, `O=C(/C=N/O)Nc1cccnc1` came in with a z-score of 1.

The molecule `CCOc1cc(C2C(C(=O)OC)=C(C)N=C3SC(C)C(=O)N32)ccc1OC(C)=O` (stereo unspecified) came in with a z-score of -0.586.

`O=C1CC2(CCCCC2)Oc2ccc(OCC(=O)N3CCOCC3)cc21` registered a z-score of -0.0335.

`Cc1ccc(C)c(OCCn2c(=O)c3c(ncn3C3CCCC3)n(Cc3ccccc3)c2=O)c1` came in with a z-score of -0.0704.

The molecule `Cn1c(CN2CCCCC2)nc2cc(NC(=O)c3cccs3)ccc21` showed a z-score of -0.23.

Turning to `CCOc1ccc(C(c2c(NC(=O)c3ccccc3)sc(C)c2C)N2CCN(C)CC2)cc1` (stereo unspecified), the z-score is -0.251.

For `COC(=O)CNC(=O)CN1C(=O)N(c2ccccc2)C(N(O)C(=O)Nc2ccccc2)C1(C)C` (stereo unspecified), the z-score was -0.083.

Regarding `CCOc1cccc(Nc2cc3n(c(=O)n2)CCc2cc(OC)c(OC)cc2-3)c1`, the z-score is -0.11.

The molecule `CCOc1ccc2nc(NC(=O)CSc3nc4ccccc4c(=O)n3Cc3ccco3)sc2c1` came in with a z-score of 0.2.

With `O=S(=O)(Cc1ccc(Cl)cc1)NCC1CCCO1` (stereo unspecified), the z-score amounted to 0.728.

As for `CCCOC(=O)COC(=O)c1ccccc1NC(=O)c1ccccc1`, the z-score was -0.232.

For the molecule `CC(=O)Oc1ccccc1C1OCCN1C(C)=O` (stereo unspecified), the z-score came to 1.1.

Turning to `Cc1ccc2cc(CCNC(=O)c3ccc4c(c3)OCO4)c(=O)[nH]c2c1`, the z-score was -1.21.

The molecule `CCCCCCCC(=O)N/N=C/c1ccc([N+](=O)[O-])o1` displayed a z-score of -0.435.

On to `CC1(C)OC(=O)N(c2cccnc2)C1(C)O` (stereo unspecified), for which the z-score was -0.26.

The molecule `CCCCCC(=O)Nc1nc(C)c(-c2csc(Nc3ccc(Cl)cc3)n2)s1` returned a z-score of 0.234.

For the molecule `Clc1ccc(SCCCCn2cncn2)cc1`, the z-score was found to be 0.0273.

Consider `Nc1ccc2c(c1)C(=O)N(CCCC(=O)O)C2=O`, for which the z-score is 0.27.

In turn, `CCOc1cc(C(=O)NCCOC)ccc1OC` returned a z-score of 0.21.

On to `Cc1ccc(O)c(C(=O)c2cnc3c(c2)CN(C)C(=O)N3)c1`, for which the z-score is -0.261.

As to `O=C(CCN1C(=O)c2ccccc2C1=O)NC(=S)Nc1ccccc1`, the z-score was -0.0912.

On to `CC(NC(=O)Nc1ccccc1)C(c1cccs1)N1CCOCC1` (stereo unspecified), for which the z-score was -0.0822.

Molecule `FC(F)(F)c1cc(-c2ccco2)nc(N2CCN(Cc3ccccc3)CC2)n1` gave a z-score of -0.284.

For `COc1cc(C(C(=O)NC2CCCCC2)N(C(=O)Cc2c[nH]c3ccccc23)c2ccc(C)cc2)cc(OC)c1OC` (stereo unspecified), the z-score is -1.29.

The molecule `Cc1ccccc1NC(=O)CSc1ccsc1[N+](=O)[O-]` came in with a z-score of -0.219.

As for `CC(=NC1CC1)c1c(-c2ccccc2)[nH]n(-c2nc3ccccc3s2)c1=O`, the z-score is -0.25.

Regarding `CCC1CCc2c(sc(NC(C)=O)c2C#N)C1` (stereo unspecified), the z-score was -0.146.

In turn, `COc1ccc(-n2c(SCC(=O)Nc3nccs3)nnc2-c2ccoc2C)cc1` showed a z-score of -0.401.

On to `O=C(C1CCN(S(=O)(=O)Cc2ccccc2)CC1)N1CCCc2ccccc21`, for which the z-score was -0.24.

As to `CS(=O)(=O)N(CC(=O)NCC1CCCO1)c1ccc(Cl)c(Cl)c1` (stereo unspecified), the z-score was -0.312.

`O=C(NC(=S)Nc1ccc(NC(=O)c2cccs2)cc1)c1ccc([N+](=O)[O-])cc1` had a z-score of -0.519.

`O=C(Cc1ccc([N+](=O)[O-])cc1)NCc1ccccc1Cl` yielded a z-score of -0.208.

The molecule `Cc1ccc(Cn2cnc3sc4c(c3c2=O)CCC4)c(C)c1` had a z-score of -0.17.

As for `O=C(OCCN(CCOC(=O)c1ccncc1)S(=O)(=O)c1cccs1)c1ccncc1`, the z-score is -0.23.

Turning to `Cc1c(NC(=O)c2cc(-n3cnnc3)ccc2Cl)cccc1-c1nc2ccccc2s1`, the z-score was -0.154.

Consider `CCOc1ccc(NC(=O)c2cccnc2C(=O)O)cc1`, for which the z-score was -0.313.

With `Cc1nn(-c2nc3ccccc3[nH]2)c(N)c1-c1ccc(Cl)cc1`, the z-score came to 0.65.

On to `O=C1OCC2=C1C(c1ccc3c(c1)OCO3)Sc1ccccc1N2` (stereo unspecified), for which the z-score is -0.129.

Consider `COc1ccc(NC(=O)C2CCN(C(=O)c3ccc(OC)cc3)CC2)cc1`, for which the z-score was 0.172.

In the case of `Cc1cc(C)nc(SCC(=O)c2ccc(O)cc2O)n1`, the z-score turned out to be 1.34.

Turning to `NC(=O)c1ccccc1NS(=O)(=O)c1ccccc1`, the z-score was -0.173.

In the case of `CCC(=O)c1ccc(OCC(=O)Nc2nn3cnnc3s2)cc1`, the z-score was found to be 0.196.

The molecule `CCOC(=O)c1c(N)n[nH]c1-c1ccccc1` had a z-score of -0.153.

`Cc1ccc(-n2c(SCC(=O)Nc3cc(S(=O)(=O)N4CCOCC4)ccc3Cl)nc3ccccc3c2=O)cc1`: the z-score is -0.483.

The molecule `CCc1cc(C(=O)c2ccc(C)cc2)c(NC(=O)CCl)s1` came in with a z-score of -0.0255.

In turn, `O=C(NS(=O)(=O)c1ccccc1)c1ccccc1F` had a z-score of -0.324.

In the case of `Cc1nn(CC(=O)N2N=C(C(F)F)CC2(O)C(F)F)c(C)c1[N+](=O)[O-]` (stereo unspecified), the z-score turned out to be 0.014.

`COc1ccc(N2CCN(S(=O)(=O)c3cccs3)CC2)cc1` yielded a z-score of 0.182.

Consider `O/N=C/c1ccc(-c2cc(Cl)ccc2Cl)o1`, for which the z-score is -0.00728.

`O=C(Nc1ccc2c(c1)OCO2)c1ccc(NC2CC2)c([N+](=O)[O-])c1` returned a z-score of -0.343.

Molecule `Cc1cccc(/C=N/n2c(C)cc(C)c(C#N)c2=O)c1` returned a z-score of -0.0821.

As to `COCCSc1nnc(NC(=O)Cc2ccccc2OC)s1`, the z-score came out at 0.31.

Regarding `CCOc1ccc(C2OC(=O)Cc3cc(OC)c(OC)cc32)cc1` (stereo unspecified), the z-score is 0.137.

The molecule `S=C1NNC2(NN1)C1CC3CC(C1)CC2C3` returned a z-score of 0.608.

`COc1ccc(NS(=O)(=O)c2ccc(NC(=O)C3CCCO3)cc2)cc1` (stereo unspecified) showed a z-score of 0.407.

Molecule `CCN1CCN(c2cc(C)c3cc(NC(=O)c4cnccn4)ccc3n2)CC1` registered a z-score of 1.64.

As for `COC(=O)COc1ccc(S(=O)(=O)N2CCc3ccccc3C2)cc1`, the z-score was -0.687.

Take `Cc1cc(C)cc(NS(=O)(=O)c2ccc3oc(=O)ccc3c2)c1`: the z-score amounted to 2.23.

Take `Cc1ccc(S(=O)(=O)CCC(=O)Nc2cccc(C)c2)cc1`: the z-score was -0.12.

On to `CCc1ccc(OCCNC(=O)c2ccc(S(=O)(=O)N(C)C)cc2)cc1`, for which the z-score was -0.269.

In turn, `O=C(Oc1c(CN2CCOCC2)cc(Cl)c2cccnc12)c1ccc(F)cc1` returned a z-score of -0.719.

The molecule `O=C(NCC1CCCO1)c1ccc2c(c1)C(=O)N(C1CCCCC1)C2=O` (stereo unspecified) gave a z-score of -0.445.

Consider `Cc1ccc(S(=O)(=O)NC(C(=O)OCC(=O)NC2CCS(=O)(=O)C2)C(C)C)cc1` (stereo unspecified), for which the z-score is -1.96.

In the case of `COc1ccccc1C(=O)NNC(=O)c1ccc(F)cc1`, the z-score amounted to 0.0416.

On to `O=C(Nc1ccc2c(c1)OCO2)c1ccc(CN2CCOCC2)cc1`, for which the z-score stood at 0.125.

For `Cc1ccc2cc(C)c3nnc(SCC(=O)N4CCCc5ccccc54)n3c2c1C`, the z-score was -0.646.
